Test results reported in PMC4336329 (PLoS ONE, 2015).
The campaign covered roughly 310,000 compounds. About 14,000 (4.5%) showed an effect of 50% or more. The effect is printed as a negative number. This is one part of the list.

target: human ether-à-go-go-related gene (hERG) potassium channel (human, UniProt Q12809); experiment: primary screen, population patch clamp on CHO cells stably expressing hERG
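Also: peak tail current of the secondary pulse compared with the same well before compound.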

human ether-à-go-go-related gene (hERG) potassium channel, sequence (Q12809 whole entry, looked up): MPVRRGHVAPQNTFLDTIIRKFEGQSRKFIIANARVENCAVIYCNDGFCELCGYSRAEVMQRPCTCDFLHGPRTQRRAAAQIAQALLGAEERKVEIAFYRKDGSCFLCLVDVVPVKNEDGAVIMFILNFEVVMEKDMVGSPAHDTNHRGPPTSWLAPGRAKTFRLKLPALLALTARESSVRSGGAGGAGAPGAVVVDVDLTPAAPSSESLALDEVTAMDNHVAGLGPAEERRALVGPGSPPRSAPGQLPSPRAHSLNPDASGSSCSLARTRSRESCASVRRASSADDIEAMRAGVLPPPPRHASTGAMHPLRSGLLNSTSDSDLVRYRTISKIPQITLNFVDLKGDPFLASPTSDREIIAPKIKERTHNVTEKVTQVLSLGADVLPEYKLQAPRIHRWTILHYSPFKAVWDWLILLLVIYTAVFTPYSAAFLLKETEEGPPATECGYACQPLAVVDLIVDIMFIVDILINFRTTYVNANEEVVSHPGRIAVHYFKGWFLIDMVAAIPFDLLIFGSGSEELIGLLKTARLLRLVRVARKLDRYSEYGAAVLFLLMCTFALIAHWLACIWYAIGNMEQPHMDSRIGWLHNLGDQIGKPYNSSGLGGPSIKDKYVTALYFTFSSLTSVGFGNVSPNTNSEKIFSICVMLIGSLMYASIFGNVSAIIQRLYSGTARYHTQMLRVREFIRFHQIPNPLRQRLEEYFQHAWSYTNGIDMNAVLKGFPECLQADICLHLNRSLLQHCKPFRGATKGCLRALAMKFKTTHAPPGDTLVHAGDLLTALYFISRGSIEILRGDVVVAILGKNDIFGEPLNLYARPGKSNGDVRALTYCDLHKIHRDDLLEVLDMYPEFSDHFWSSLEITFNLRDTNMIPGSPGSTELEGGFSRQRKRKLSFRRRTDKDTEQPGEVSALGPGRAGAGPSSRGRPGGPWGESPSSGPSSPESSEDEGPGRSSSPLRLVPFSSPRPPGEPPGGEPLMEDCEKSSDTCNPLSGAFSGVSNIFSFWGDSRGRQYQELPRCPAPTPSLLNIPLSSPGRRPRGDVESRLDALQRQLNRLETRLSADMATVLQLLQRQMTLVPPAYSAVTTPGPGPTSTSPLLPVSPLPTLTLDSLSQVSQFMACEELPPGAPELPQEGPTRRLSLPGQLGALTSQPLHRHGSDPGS

SMILES | hERG current change (%, negative = inhibition) at 10uM
Cc1ccccc1N(CC(=O)NCC1CCCO1)C(=O)CCC(=O)Nc1nccs1 (stereo not drawn) | 32.5%
COc1ccccc1Nc1nnc(SCC(=O)N2CCCC2=O)s1 | -11.4%
COc1ccc(CCNC(=O)CSc2ccc(Br)cc2)cc1OC | 23%
NC(=O)NNc1ncc(C(F)(F)F)cc1Cl | 2.95%
O=C(N/N=C/c1ccc(O)cc1)c1nc(-c2ccccc2)n(-c2ccccc2)n1 | -3.91%
CCN(C(=O)COC(=O)c1cc([N+](=O)[O-])ccc1N1CCOCC1)c1ccccc1 | -34.3%
Cc1ccc(C(=O)OCn2nnc3ccccc3c2=O)cc1[N+](=O)[O-] | 1.72%
COc1cc(C(=O)Nc2ccc(S(=O)(=O)N3CCc4ccccc43)cc2)cc(OC)c1OC | -4.14%
Cc1ccc(Oc2nccc(-c3ccc(Cl)cc3)n2)cc1 | 9.09%
O=C(c1ccc(Cl)c(S(=O)(=O)Nc2ccccc2C(=O)N2CCc3ccccc3C2)c1)N1CCc2ccccc2C1 | 2.64%
c1ccc2ncc(-n3cnnn3)cc2c1 | 7.18%
CC(C)Cc1nnc(NC(=O)c2cc(-c3ccccc3)nc3ccccc23)s1 | -12.3%
CCOC(=O)CCC(NC(=O)c1ccc(NCN2C(=O)c3ccccc3C2=O)cc1)C(=O)OCC (stereo not drawn) | 4.89%
O=C1OCCC1Sc1nc2cc(Cl)ccc2s1 (stereo not drawn) | -9.14%
COc1ccc(NC(=O)Cn2c(=O)sc3ccccc32)cc1 | -3.44%
COC(=O)COc1ccc(=O)n(-c2ccccc2)n1 | 3.87%
CN(C)C(=O)Oc1ccc2c(c1)O/C(=C\c1cccc([N+](=O)[O-])c1)C2=O | 18.6%
CCOC(=O)C1(Cc2cccc(OC)c2)CCN(CC(O)CO)CC1 (stereo not drawn) | -4.39%
CCC(=O)Oc1ccc2c(c1)OC1(OC(C)=O)OC(C)CC1=C2C (stereo not drawn) | -5.19%
Cc1cc(C)c(CSc2ncnc3nc[nH]c23)c(C)c1 | 11.3%
O=C1[N-]C(=O)C(c2ccccc2)(c2ccccc2)N1.[Na+] | 8.3%
O=C(c1cccs1)c1coc2ccc(O)c(CN3CCOCC3)c12 | -69.1%
CO/N=C/c1ccc(Oc2ccc([N+](=O)[O-])cc2[N+](=O)[O-])c(OC)c1 | 4.22%

SMILES | hERG current change (%, negative = inhibition) at 10uM
O=C(CCNS(=O)(=O)c1ccccc1)N1CCOCC1 | 20.4%
CCOc1ccc(S(=O)(=O)N2CCC(C(=O)OC(C)C(=O)N(C)C3CCCCC3)CC2)cc1 (stereo not drawn) | -21.6%
Cc1ccc(C(=O)NC(=S)N2CCCC2)cc1 | 24.9%
CCCCn1nnc(NC(=O)c2ccc([N+](=O)[O-])cc2Cl)n1 | -31.1%
COc1cc(/C=C2/C(=O)N(c3cccc(Br)c3)N=C2C)cc(OC)c1O | 32.4%
COc1cccc(NC(=O)COc2nc3ccccc3nc2C)c1 | 10.7%
CC1CCCN(CCOc2cccc(Oc3ccccc3)c2)C1.O=C(O)C(=O)O (stereo not drawn) | -64.7%
CCc1c(O)nc(SCC(=O)Nc2nc3ccccc3s2)n(-c2ccc(C)cc2)c1=O | -17.8%
CS(=O)(=O)N1CCCC(C(=O)Nc2ccccc2)C1 (stereo not drawn) | 10.4%
O=C(Oc1ccc2c(c1)OCC2=O)c1ccc(Cl)cc1 | -2.29%
N#Cc1nc(-c2ccccc2F)oc1NCCc1ccccn1 | -3.63%
COC(=O)CN=Cc1c(C)[nH]n(-c2ccccc2)c1=O | -1.99%
O=S(=O)(c1ccc(F)cc1)N1CCN(C(=S)NCc2ccccc2)CC1 | 13.8%
Cc1cc(NC(=O)c2ccccc2F)n(C(C)(C)C)n1 | 15.4%
C=C(C)Cn1c(SCC(=O)O)nnc1-c1ccc(OC)cc1 | -16.3%
O=C(CCN1C(=O)c2cccc3cccc(c23)C1=O)N1CCOCC1 | 19.9%
Cc1cccc(C(=O)c2ccccc2C(=O)O)c1O | 20.4%
Cc1cccc(N=C2NC(=O)C(CO)(CO)S2)c1 | 17.2%
Cc1ccc(C)c(-c2csc(NC(=O)c3cnccn3)n2)c1 | -11.9%
COCCNC(=O)CN(C(=O)Cn1nnc2ccccc21)c1ccc(C)c(F)c1 | 2.88%
CC1CCC(NC(=O)CCNS(=O)(=O)c2ccccc2)CC1 (stereo not drawn) | 10.6%
O=C(CCN1C(=O)[C@@H]2Cc3ccccc3CN2C1=O)Nc1cccc(F)c1 | -13.8%
